Consider one compound from PubChem BioAssay AID314 (DTP/NCI, 2004).

The test system of the test is DBA/2 mice, P1534 leukemia ip, survival T/C. As to the kind of experiment: NCI In Vivo Anticancer Drug Screen. Data for tumor model P1534 Leukemia (intraperitoneal) in DBA/2 mice. The conditions noted are these: endpoint: mean survival time; dose: 18.8 mg/kg/injection; schedule: Q01DX010 (ip); vehicle: saline; higher = longer survival. On the procedure: The antitumor activity of compounds was measured in mice bearing transplantable tumors. Survival or tumor size were measured and the results are expressed as the measurement made in the treated group (T) divided by the measurement made in the vehicle treated control group (C). The tumor model used in this assay is P1534 Leukemia (intraperitoneal) in DBA/2 mice

Inconclusive results and toxic doses are left out. Not every entry of the source has a single result; some have several. The list is limited to them. There may be further records. Values that stand side by side are repeated measurements (runs, samples, wells, individuals or studies).

For the compound `O=c1[nH]c(=O)n(C2CC(O)C(CO)O2)cc1F` (stereo unspecified), the T/C is 121 % of control and 165 % of control.
